Source: the supplement of paper PMC4604168 (melanoma cell lines)
The list shows a part of the results. Most values come without repeats; read them as rough.

Key:
Test in all cases: cell count relative to DMSO control; melanoma cells; higher = more viable cells
Details in all cases: library dose: low library concentration; 72 h
WM115 = tested on: WM115
WM1716 = tested on: WM1716
WM1745 = tested on: WM1745
WM3526 = tested on: WM3526
WM3619 = tested on: WM3619
WM451Lu = tested on: WM451Lu
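Further: cell number obtained by counting DAPI-stained nuclei in high-throughput microscope images with image analysis software, screen run in 1,536-well plates.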

Row | SMILES | cell count (WM115) [%] | cell count (WM1716) [%] | cell count (WM1745) [%] | cell count (WM3526) [%] | cell count (WM3619) [%] | cell count (WM451Lu) [%]
1 | OCc1c[nH]c2ccccc12 [Indole-3-carbinol] + Oc1cc(-c2nc(-c3ccccc3)[nH]c2-c2ccncc2)ccc1Cl [L779450] (first compound 0.8 µM, partner dose 0.2 µM) | 87.2 | 121 | 94.4 | 96.1 | 96.8 | 116
2 | OCc1c[nH]c2ccccc12 [Indole-3-carbinol] + CCCCCCCCCCCC1=C(O)C(=O)C=C(O)C1=O [Embelin] (first compound 0.8 µM, partner dose 1.2 µM) | 107 | 73.4 | 98.8 | 99.9 | 105 | 106
3 | O=C(CCCCCCC(=O)Nc1ccccc1)NO [vorinostat] + NCC(=O)Nc1ccc(-n2nc(C(F)(F)F)cc2-c2ccc3c(ccc4ccccc43)c2)cc1 [OSU03012] (first compound 0.08 µM, partner dose 1 µM) | 77.7 | 108 | 104 | 44.2 | 61.2 | 59.8
4 | Cn1c(Nc2ccc(C(F)(F)F)cc2)nc2cc(Oc3ccnc(-c4ncc(C(F)(F)F)[nH]4)c3)ccc21 + OCCn1cc(-c2cnc3nnn(Cc4ccc5ncccc5c4)c3n2)cn1 [PF04217903] (first compound 0.08 µM, partner dose 1 µM) | 66.9 | 90.4 | 77.9 | 44.9 | 69.1 | 113
5 | Cn1c(Nc2ccc(C(F)(F)F)cc2)nc2cc(Oc3ccnc(-c4ncc(C(F)(F)F)[nH]4)c3)ccc21 + CN(NC(=O)CC(=O)NN(C)C(=S)c1ccccc1)C(=S)c1ccccc1 [STA4783] (first compound 0.08 µM, partner dose 0.006 µM) | 50.4 | 56.1 | 64.4 | 53.3 | 73.3 | 86.2
6 | OCc1c[nH]c2ccccc12 [Indole-3-carbinol] + Cc1cc([N+](=O)[O-])ccc1NS(=O)(=O)c1cc(Cl)ccc1Cl [FH535] (first compound 0.8 µM, partner dose 1 µM) | 89.1 | 98.7 | 116 | 99.8 | 100 | 95.2
7 | O=C(CCCCCCC(=O)Nc1ccccc1)NO [vorinostat] + NC(=O)Nc1cc(-c2cccc(F)c2)sc1C(=O)N[C@H]1CCCNC1 [AZD7762] (first compound 0.08 µM, partner dose 0.02 µM) | 87.5 | 112 | 122 | 70.1 | 52.8 | 88.1
8 | Nc1cccc2c1CN(C1CCC(=O)NC1=O)C2=O (centres undefined) [lenalidomide] + C=CCn1c(=O)c2cnc(Nc3ccc(N4CCN(C)CC4)cc3)nc2n1-c1cccc(C(C)(C)O)n1 [MK1775] (first compound 1 µM, partner dose 0.02 µM) | 83.6 | 82.4 | 65.6 | 105 | 108 | 71.8
9 | Cn1c(Nc2ccc(C(F)(F)F)cc2)nc2cc(Oc3ccnc(-c4ncc(C(F)(F)F)[nH]4)c3)ccc21 + CCc1ccc(CCOc2ccc(CC3SC(=O)NC3=O)cc2)nc1 [pioglitazone] (first compound 0.08 µM, partner dose 2 µM) | 60.9 | 78.3 | 65.8 | 65.5 | 81.1 | 103
10 | C#Cc1cccc(Nc2ncnc3cc(OCCOC)c(OCCOC)cc23)c1 [erlotinib] + Cc1ccc(NC(=O)c2cccc(N(C)C)c2)cc1NC(=O)c1ccc(O)cc1 [ZM336372] (first compound 0.8 µM, partner dose 2 µM) | 98.8 | 92.5 | 87.3 | 89.1 | 96.9 | 97.1
11 | Nc1cccc2c1CN(C1CCC(=O)NC1=O)C2=O (centres undefined) [lenalidomide] + Cn1cc(/C=C2\C(=O)Nc3cccnc32)c2ccccc21 [GW441756] (first compound 1 µM, partner dose 0.4 µM) | 97.9 | 90.3 | 94.4 | 98.1 | 96.6 | 103
12 | C#Cc1cccc(Nc2ncnc3cc(OCCOC)c(OCCOC)cc23)c1 [erlotinib] + COc1ccc(Cl)c(Nc2nc3ccccc3nc2NS(=O)(=O)c2cccc(NC(=O)C(C)(C)N)c2)c1 [XL147] (first compound 0.8 µM, partner dose 0.8 µM) | 89.2 | 88.6 | 85.5 | 102 | 94.5 | 82
13 | Clc1ccc(Nc2nnc(Cc3ccncc3)c3ccccc23)cc1 [vatalanib] + Cn1cncc1[C@@](N)(c1ccc(Cl)cc1)c1ccc2c(c1)c(-c1cccc(Cl)c1)cc(=O)n2C [tipifarnib] (first compound 2 µM, partner dose 0.01 µM) | 82.6 | 70.5 | 84.7 | 77.7 | 89.6 | 91.5
14 | C#Cc1cccc(Nc2ncnc3cc(OCCOC)c(OCCOC)cc23)c1 [erlotinib] + CCc1ccc(CCOc2ccc(CC3SC(=O)NC3=O)cc2)nc1 [pioglitazone] (first compound 0.8 µM, partner dose 2 µM) | 108 | 94.8 | 70.4 | 84.8 | 74.8 | 114
15 | C#Cc1cccc(Nc2ncnc3cc(OCCOC)c(OCCOC)cc23)c1 [erlotinib] + Cn1c(Nc2ccc(C(F)(F)F)cc2)nc2cc(Oc3ccnc(-c4ncc(C(F)(F)F)[nH]4)c3)ccc21 [CHIR265] (first compound 0.8 µM, partner dose 0.08 µM) | 59.1 | 78.4 | 75.7 | 47 | 80.9 | 82
16 | Clc1ccc(Nc2nnc(Cc3ccncc3)c3ccccc23)cc1 [vatalanib] + Cn1c(Nc2ccc(C(F)(F)F)cc2)nc2cc(Oc3ccnc(-c4ncc(C(F)(F)F)[nH]4)c3)ccc21 [CHIR265] (first compound 2 µM, partner dose 0.08 µM) | 65.2 | 80.5 | 69.8 | 67.2 | 73.6 | 83.1
17 | C#Cc1cccc(Nc2ncnc3cc(OCCOC)c(OCCOC)cc23)c1 [erlotinib] + COc1cc(N2CCC(N3CCN(C)CC3)CC2)ccc1Nc1ncc(Cl)c(Nc2ccccc2S(=O)(=O)C(C)C)n1 [NVP-TAE684] (first compound 0.8 µM, partner dose 0.08 µM) | 92.2 | 98.9 | 70.8 | 73.8 | 107 | 94.7
18 | COCC[n+]1c2c(n(Cc3cnccn3)c1C)C(=O)c1ccccc1C2=O + Cn1cc(/C=C2\C(=O)Nc3cccnc32)c2ccccc21 [GW441756] (first compound 0.0004 µM, partner dose 0.4 µM) | 80.6 | 116 | 102 | 97.4 | 115 | 55.8
19 | O=C(CCCCCCC(=O)Nc1ccccc1)NO [vorinostat] + CO[C@@H]1[C@H](N(C)C(=O)c2ccccc2)C[C@H]2O[C@]1(C)n1c3ccccc3c3c4c(c5c6ccccc6n2c5c31)C(=O)NC4 [Midostaurin] (first compound 0.08 µM, partner dose 0.08 µM) | 66.3 | 92.8 | 82.2 | 88.4 | 85.3 | 76.9
20 | Nc1cccc2c1CN(C1CCC(=O)NC1=O)C2=O (centres undefined) [lenalidomide] + CN(NC(=O)CC(=O)NN(C)C(=S)c1ccccc1)C(=S)c1ccccc1 [STA4783] (first compound 1 µM, partner dose 0.006 µM) | 83.2 | 80.3 | 41.9 | 90.8 | 53.1 | 112
21 | C#Cc1cccc(Nc2ncnc3cc(OCCOC)c(OCCOC)cc23)c1 [erlotinib] + C[C@@H]1CCN(C(=O)CC#N)C[C@@H]1N(C)c1ncnc2[nH]ccc12 [CP690550] (first compound 0.8 µM, partner dose 1 µM) | 93.9 | 98.8 | 82.7 | 95.8 | 103 | 108
22 | Nc1cccc2c1CN(C1CCC(=O)NC1=O)C2=O (centres undefined) [lenalidomide] + OCCn1cc(-c2cnc3nnn(Cc4ccc5ncccc5c4)c3n2)cn1 [PF04217903] (first compound 1 µM, partner dose 1 µM) | 88.6 | 95.6 | 75.2 | 119 | 103 | 86
23 | Cn1c(Nc2ccc(C(F)(F)F)cc2)nc2cc(Oc3ccnc(-c4ncc(C(F)(F)F)[nH]4)c3)ccc21 + Cc1ccc(NC(=O)c2cccc(N(C)C)c2)cc1NC(=O)c1ccc(O)cc1 [ZM336372] (first compound 0.08 µM, partner dose 2 µM) | 50.7 | 71.2 | 64.1 | 43.1 | 82 | 84
24 | OCc1c[nH]c2ccccc12 [Indole-3-carbinol] + CN(NC(=O)CC(=O)NN(C)C(=S)c1ccccc1)C(=S)c1ccccc1 [STA4783] (first compound 0.8 µM, partner dose 0.006 µM) | 86.4 | 76 | 50.2 | 75.1 | 65.8 | 108
